# Measurements as given in article PMC4336329 (PLoS ONE, 2015).
# About 14,000 (4.5%) of roughly 310,000 compounds showed an effect of 50% or more. Effects have a minus sign here. Some of the results follow.
# Molecular target: human ether-à-go-go-related gene (hERG) potassium channel (human, UniProt Q12809)
# Assay: primary screen, population patch clamp on CHO cells stably expressing hERG
# 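Further: peak tail current of the secondary pulse compared with the same well before compound.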
# Chain of human ether-à-go-go-related gene (hERG) potassium channel (Q12809 whole entry, looked up): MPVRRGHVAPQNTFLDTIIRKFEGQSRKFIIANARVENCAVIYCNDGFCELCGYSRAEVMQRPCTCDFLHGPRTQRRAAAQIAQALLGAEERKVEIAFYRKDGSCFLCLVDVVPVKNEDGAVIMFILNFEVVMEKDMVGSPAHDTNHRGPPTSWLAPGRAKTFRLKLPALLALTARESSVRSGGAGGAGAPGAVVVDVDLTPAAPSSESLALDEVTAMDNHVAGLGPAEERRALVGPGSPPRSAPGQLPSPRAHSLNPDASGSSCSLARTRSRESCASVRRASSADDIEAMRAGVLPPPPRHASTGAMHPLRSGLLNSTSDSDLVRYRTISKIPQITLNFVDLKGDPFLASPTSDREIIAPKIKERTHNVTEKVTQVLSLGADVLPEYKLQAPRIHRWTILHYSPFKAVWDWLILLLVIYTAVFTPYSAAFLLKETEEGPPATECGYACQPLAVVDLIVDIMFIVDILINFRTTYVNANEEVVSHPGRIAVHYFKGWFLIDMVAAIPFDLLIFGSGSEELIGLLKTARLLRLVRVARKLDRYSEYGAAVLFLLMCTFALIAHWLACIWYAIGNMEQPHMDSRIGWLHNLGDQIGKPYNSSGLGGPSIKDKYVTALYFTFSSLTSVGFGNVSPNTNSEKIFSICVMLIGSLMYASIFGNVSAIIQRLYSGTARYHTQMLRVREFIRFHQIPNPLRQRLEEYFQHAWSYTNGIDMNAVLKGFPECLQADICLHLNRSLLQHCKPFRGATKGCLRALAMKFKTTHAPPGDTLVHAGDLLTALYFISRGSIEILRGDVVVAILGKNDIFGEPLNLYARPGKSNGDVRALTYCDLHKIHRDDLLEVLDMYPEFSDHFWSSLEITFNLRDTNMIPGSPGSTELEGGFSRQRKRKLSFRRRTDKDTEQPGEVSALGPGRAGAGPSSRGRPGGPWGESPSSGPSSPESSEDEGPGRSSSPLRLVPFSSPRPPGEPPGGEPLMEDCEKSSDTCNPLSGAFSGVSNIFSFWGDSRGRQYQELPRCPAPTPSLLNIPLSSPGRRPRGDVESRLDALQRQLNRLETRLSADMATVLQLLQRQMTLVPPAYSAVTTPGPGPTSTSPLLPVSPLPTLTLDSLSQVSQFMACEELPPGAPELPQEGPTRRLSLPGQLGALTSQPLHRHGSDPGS
row,Structure (SMILES),"hERG current change (%, negative = inhibition) at 10uM [%]"
1,CN(C)C1(CNC(=O)C2CCN(S(=O)(=O)c3cc(Cl)ccc3Cl)CC2)CCCCC1,-64.1
2,COc1ccc(/C=N/NC(=O)Cc2ccc(Cl)cc2)cc1OC,0.921
3,COc1ccc(N2CCC(CNC(=S)Nc3cc(C)ccc3C)C2)cc1 (stereo not drawn),-4.75
4,COc1ccc(C)cc1NC(=O)CCN1CCCC1,2.36
5,COC(=O)/C=C1/N/C(=N\c2nc(C)cc(C)n2)N(c2ccc(C)c(C)c2)C1=O,-3.78
6,Cc1cccn2c(=O)c3cc(C(=O)NCCN4CCOCC4)c(=N)n(CCCN4CCOCC4)c3nc12,15.2
7,CCN(CC)C(=O)CSc1nc2ccccc2c(=O)n1-c1ccccc1OC,-19.4
8,CCN(/N=C/c1ccc(Cl)cc1)c1cc(=O)n(C)c(=O)[nH]1,0.296
9,COc1ccccc1NS(=O)(=O)c1ccc(C)c(NC(=O)c2c(C)noc2C)c1,-8.94
10,CCN(CCNC(=O)c1cc(C)nn1-c1ccccc1)c1ccccc1,-4.11
11,Cc1cccc(C)c1N1CCN(c2cc(Cl)nc(N)n2)CC1,6.96
12,O=C(C1CCCN(Cc2nc(-c3ccc(Cl)cc3)no2)C1)N1CCOCC1 (stereo not drawn),1.39
13,CC(=O)c1nc2ccccc2n1S(=O)(=O)c1ccc(C)cc1,17.3
14,Cc1ccc(NC(=O)Nn2cnnc2)cc1,23.2
15,CC(C)(C)n1ncc2c(=O)n(Cc3c(F)cccc3Cl)cnc21,-4.72
16,CCc1ccccc1N1C(=O)CC(=O)NC1=O,28.5
17,COC(=O)Nc1sc2c(c1C(=O)NC1CC1)CCCCCC2,-18.8
18,CCCOc1ccc(C(=O)N2CCCC2)cc1OC,-3.36
19,CCOC(=O)c1cc(-c2ccc(C)cc2)n(CCC(=O)NC(C)CC)c1C (stereo not drawn),16.7
20,C=C(C)CNC(=S)N/N=C(\C)c1ccc(OC)cc1,-0.81
21,Cc1cc(Nc2cccc([N+](=O)[O-])c2)c2cccc(C)c2n1.Cl,-77.3
22,COc1cccc(CNC(=O)CNC(=O)N2CC(=O)Nc3ccccc32)c1,16.6
23,COc1ccc(N/C=C(\C2OC(=O)c3ccccc32)[N+](=O)[O-])cc1 (stereo not drawn),8.53

row,Structure (SMILES),"hERG current change (%, negative = inhibition) at 10uM [%]"
1,CCc1nnc(NC(=O)CCC(=O)N2CCN(CCOc3ccc(C)cc3)CC2)s1,-20.2
2,CC(=O)c1c(C)[nH]c(C(=O)NC2=NCCS2)c1C,6.34
3,Cc1ccc2cc3cc(C(=O)NC4CC4)oc3nc2c1,8.43
4,O=C(O)c1cnc(N2CCOCC2)nc1,4.21
5,Cc1nc(-c2cccnc2)sc1C(=O)Nc1ccc(F)cc1F,-15
6,COc1ccc(NC(=O)c2ccc3nc[nH]c3c2)cc1,21.9
7,Cc1nn(CCCC(=O)NCCc2ccccc2)c(=O)c2nccn12,0.983
8,Cc1c(CN2CCCCC2)c(O)n(CCCO)c(=O)c1C#N,2.57
9,O=C(/C=C/c1ccco1)NC(=S)Nc1ccc(N2CCCC2)cc1,3.51
10,CCN(c1ccccc1)S(=O)(=O)c1ccc(Cl)c(NC(=O)c2ccc(=O)[nH]n2)c1,-4.68
11,CC(C)N(Cc1nc(-c2ccc(Cl)cc2)no1)C(=O)c1cccs1,-8.63
12,Cc1ccc(/C=N/NC(=O)c2cccs2)cc1[N+](=O)[O-],-8.39
13,CCOC(=O)CNc1nnc(SCC(=O)OCC)[nH]c1=O,17.8
14,O=C(COc1ccc(Cl)cc1)NCCc1cnc[nH]1,-4.36
15,COc1ccc(N(C(=O)c2cnccn2)C(C(=O)NC2CCCCC2)c2ccc(Cl)cc2)cc1 (stereo not drawn),4.31
16,Cc1cccc2cc(C(c3nnnn3Cc3ccccc3)N3CCN(C)CC3)c(=O)[nH]c12 (stereo not drawn),-8.42
17,O=C(O)C(Cc1cnc[nH]1)NS(=O)(=O)c1ccc(Cl)cc1 (stereo not drawn),-0.798
18,O=C(NCc1ccccc1F)c1ccc2ccccc2n1,-3.21
19,COc1ccc(-c2ccnc(SCC(=O)c3ccc(OC)c(OC)c3)n2)cc1,-2.4
20,COC(=O)C1CCN(S(=O)(=O)c2c(C)n(C)c(=O)n(C)c2=O)CC1,2.14
21,COc1ccc(N2CCN(S(=O)(=O)CCNS(=O)(=O)c3ccccc3)CC2)cc1,9.4
22,CN(C(=O)c1cc2c(s1)-c1ccccc1S(=O)(=O)C2)c1ccccc1F,-3.69
